Test results taken from PubChem BioAssay AID624417 (National Center for Advancing Translational Sciences (NCATS), 2012).
About 6,400 (1.6%) of roughly 410,000 compounds were called active. The shares of active, inactive and inconclusive entries below differ from those in the screen. The call rests on the fitted dose curve; in most records, active means well fitted inhibition curve with a large enough effect; inconclusive means small, poorly fitted or top-dose-only effect; inactive means no such curve, though single readings can be large or run the other way. Potencies of inconclusive entries are left out as doubtful fits.

The compounds below were run against Glucagon-like peptide 1 receptor (Homo sapiens) (UniProt P43220) (assay: qHTS of GLP-1 Receptor Inverse Agonists (Inhibition Mode)). Conditions: HEK293 GLP-1R CRE-luciferase, luminescence, 24 h, GLP-1R form is constitutively active; activity change, negative = inhibition: at 38.3 µM (top of the series) unless noted.
Method in brief: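 HEK293 cells stably co-expressing constitutively active GLP-1R and a cAMP-responsive luciferase reporter were seeded in DMEM with 10% Nu serum, given compounds after 12 h, and incubated 24 h at 37 deg C. Luminescence was then read.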
Further: nearly all actives have a fitted effect of over 55% in size.
On the % scale 0 is the no-effect control and ±100 the full control effect; potency means the concentration at half of the fitted maximal effect; tags describe the fitted curve by direction and shape.

UniProt P43220, sequence (P43220 whole entry, looked up): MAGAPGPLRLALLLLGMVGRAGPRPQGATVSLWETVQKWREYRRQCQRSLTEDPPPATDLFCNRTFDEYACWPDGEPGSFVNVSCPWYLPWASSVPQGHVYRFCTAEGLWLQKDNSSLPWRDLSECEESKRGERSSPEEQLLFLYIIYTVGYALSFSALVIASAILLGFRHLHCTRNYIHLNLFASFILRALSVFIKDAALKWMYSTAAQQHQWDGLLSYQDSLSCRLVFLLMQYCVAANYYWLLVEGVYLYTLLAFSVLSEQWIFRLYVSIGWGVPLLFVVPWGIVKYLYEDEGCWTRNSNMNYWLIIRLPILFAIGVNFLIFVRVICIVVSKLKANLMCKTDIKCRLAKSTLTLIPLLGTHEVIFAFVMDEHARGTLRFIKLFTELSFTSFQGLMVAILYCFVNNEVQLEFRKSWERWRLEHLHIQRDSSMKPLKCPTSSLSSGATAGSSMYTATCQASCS

| Structure (SMILES) | Potency | activity change, negative = inhibition |
| --- | --- | --- |
| CC(C)/C=C/CN1CCN(CCCc2ccccc2)C(CCO)C1 (configuration not stated) | inconclusive [inhibitor, single point] |  |
| O=C(/C=C/Nc1ccc(Oc2ccccc2Cl)cc1)c1ccco1 | inconclusive [inhibitor, single point] |  |
| O=[N+]([O-])c1ccc(N2CCN(Cc3cccc([N+](=O)[O-])c3)CC2)cc1 | inconclusive [inhibitor, partial curve] |  |
| COc1ccc2oc(C(=O)OC(C)C(=O)N(C)c3ccccc3)c(C)c2c1 (configuration not stated) | inconclusive [inhibitor, single point] |  |
| COC(=O)c1scc(-c2ccc(C)cc2)c1S(=O)(=O)N1CCN(c2ccc(OC)cc2)CC1 | inconclusive [inhibitor, single point] |  |
| CNC(CC(=O)c1ccc([N+](=O)[O-])cc1)C(Cl)(Cl)Cl (configuration not stated) | inconclusive [inhibitor, full curve] |  |
| CCOc1ccc(NS(=O)(=O)c2ccc(C(=O)NCC(c3ccc(OC)cc3)N3CCOCC3)cc2)cc1 (configuration not stated) | inconclusive [inhibitor, single point] |  |
| COc1ccc2c(c1)C(=O)CC(c1ccc3c(c1)OCCO3)O2 (configuration not stated) |  | inconclusive: -53.3% [inhibitor] |
| CCOc1ccc(N(C)S(=O)(=O)c2cc(-c3cc(C)no3)ccc2CC)cc1 | active: 8.91 µM |  |
| COC1=CC(=O)c2nc(Cl)ccc2C1=O | inconclusive [inhibitor, single point] |  |
| Cc1cc(C)cc(NC(=S)NCCN(C2CCCCC2)C2CCCC2)c1 | inconclusive [inhibitor, single point] |  |
| CCCCN(CCCC)C(=O)c1sc2nc(N3CCOCC3)c3c(c2c1N)CCCC3 | inconclusive [inhibitor, partial curve] |  |
| C[C@@H](NC(=O)c1nc[nH]c1C(=O)N[C@@H](Cc1ccccc1)C(=O)OC(C)(C)C)c1ccccc1 | inconclusive [inhibitor, partial curve, poor fit] |  |
| Cc1ccc(NC(=O)c2sc3ncnc(N4CCN(c5ccccn5)CC4)c3c2C)c(C)c1 | inconclusive [inhibitor, partial curve, poor fit] |  |
| Cc1cccc(N2C(=O)c3cccc4c(N)ccc(c34)C2=O)c1 | inactive |  |
| CCCc1ccc(C(=O)NNc2cc(Cl)ccc2Cl)cc1 | active: 1.26 µM |  |
| Cc1cc(OCCOCCNCc2ccccc2)ccc1C(C)C | inconclusive [inhibitor, partial curve] |  |
| CC(C)CN(C(=O)CSc1nn(-c2ccc(Cl)cc2)c(=S)s1)C1CCS(=O)(=O)C1 (configuration not stated) | inconclusive [inhibitor, single point] |  |
| Cc1ccc2oc(=O)n(CCCOc3ccc(Cl)cc3)c2c1 | inconclusive [inhibitor, single point] |  |
| CC1(Oc2cccc(C#N)c2)CCN(Cc2ccccc2OC(F)F)C1 (configuration not stated) | inconclusive [inhibitor, partial curve, poor fit] |  |
| CCOc1ccccc1C(=O)Nc1ccsc1C(=O)OC | inconclusive [inhibitor, full curve] |  |

| Structure (SMILES) | Potency | activity change, negative = inhibition |
| --- | --- | --- |
| Cc1cc(C)c(NC(=O)c2cc(S(=O)(=O)N3CCN(c4ccccc4F)CC3)ccc2F)c(C)c1 | inconclusive [inhibitor, partial curve] |  |
| O=C(NCc1ccccc1)c1c(Cl)nc(Cl)c(Cl)c1Cl | inconclusive [inhibitor, partial curve, poor fit] |  |
| CC(=O)NC(c1ccccc1)c1nc(-c2cccc(C(C)C)c2)cs1 (configuration not stated) | inconclusive [inhibitor, single point] |  |
| CC1(C)OC(=O)C2=C(C[C@@H](CCc3ccccc3)O[C@H]2C2CCCC2)O1 | inconclusive [inhibitor, single point] |  |
| C/C(CC(=O)Nc1cccc(C(F)(F)F)c1)=N\NC(=O)c1ccncc1 | inconclusive [inhibitor, single point] |  |
| Cc1ccccc1NC(=O)c1c(C)nn(-c2ccccc2)c1Cl | inconclusive [inhibitor, single point] |  |
| COc1cccc(C(=O)O[C@H]2[C@H](Cc3ccccc3)NS(=O)(=O)[C@H]3C[C@@H]4C=C[C@]23O4)c1 | inactive |  |
| CCOc1ccc(CNC(=O)c2ccc3c(c2)c(C)c(C)n3Cc2ccc(Cl)cc2)cc1 | inconclusive [inhibitor, partial curve, poor fit] |  |
| O=[N+]([O-])c1cc(-n2cnnn2)ccc1N1CCC(Cc2ccccc2)CC1 | inconclusive [inhibitor, single point] |  |
| O=C(Nc1ccc2c(c1)OCO2)c1cc(C2CCCN(C(=O)CCc3ccccc3)C2)on1 (configuration not stated) | inconclusive [inhibitor, partial curve, poor fit] |  |
| O=C(COc1ccccc1)NC1CCCc2ccccc21 (configuration not stated) | inconclusive [inhibitor, single point] |  |
| Cc1cccc(C)c1NC(=O)C1=C(O)c2ccccc2N(C)S1(=O)=O | inconclusive [inhibitor, single point] |  |
| CC(=O)OCCNc1nc(-c2ccccc2)nc2ccccc12 | inconclusive [inhibitor, single point] |  |
| CC(C)N1CCN(Cc2cnc(-c3ccccc3)s2)CC1CCO (configuration not stated) | inconclusive [inhibitor, partial curve, poor fit] |  |
| O=C1NC[C@H](Cc2ccccc2)N(C[C@H]2CCCN2C[C@H](Cc2ccccc2)N2C[C@H](Cc3ccccc3)N(CCc3ccccc3)C(=O)C2=O)C1=O | inconclusive [inhibitor, single point] |  |
| OCCC#Cc1c(-c2ccsc2)sc2ccccc12 | inconclusive [inhibitor, partial curve, poor fit] |  |
| Cc1ccc(CCNC(=O)c2ccc(CSCc3ccccc3Cl)o2)cc1 | inconclusive [inhibitor, single point] |  |
| COc1ccc(N2CCC(CNC(=S)Nc3ccc(C)cc3C)C2)cc1 (configuration not stated) | inconclusive [inhibitor, single point] |  |
| CCOC(=O)c1c(C)nsc1NCc1ccccc1 | inconclusive [inhibitor, single point] |  |
| CC1=CC(C)(C)N(C(=O)CSc2nncn2C)c2ccccc21 | inactive |  |
| C=CCn1c(C)c(C(C)=O)c(N2CCN(C(c3ccccc3)c3ccccc3)CC2)nc1=S | active: 7.08 µM |  |

| Structure (SMILES) | Potency | activity change, negative = inhibition |
| --- | --- | --- |
| Clc1cncc(Cl)c1N/N=C/c1ccccc1 | inconclusive [inhibitor, single point] |  |
| C=C1C(=O)[C@]23C[C@H]1CC[C@H]2[C@]1(C)[C@@H](OC(C)=O)CC[C@@](C)(C(=O)OC)[C@H]1C[C@@H]3OC(C)=O | inconclusive [inhibitor, partial curve, poor fit] |  |
| COc1cccc(/C=C2\SC(=S)N(CCCC(=O)Nc3ccc(C(=O)O)cc3)C2=O)c1 | inconclusive [inhibitor, single point] |  |
| COc1cccc(OC)c1OCCCOc1ccc(C)cc1Br | inconclusive [inhibitor, single point] |  |
| C/C(CCc1ccccc1)=N\NC(=O)C1C2CCCCC21 (configuration not stated) | inactive |  |
| COc1ccc(Cl)cc1-c1nc(SCC(=O)NCC2CCCO2)n[nH]1 (configuration not stated) | inactive |  |
| O=C(CSc1nnc(-c2ccc3c(c2)OCO3)o1)Nc1ncc(Cl)cc1Cl | inconclusive [inhibitor, partial curve, poor fit] |  |
| COc1ccc(Cl)cc1NC(=O)CN(c1cccc(C)c1C)S(=O)(=O)c1ccccc1 | inconclusive [inhibitor, partial curve, poor fit] |  |
| O=C(CC1N=C2c3ccccc3N=C(SCc3ccccc3F)N2C1=O)NCc1ccc2c(c1)OCO2 (configuration not stated) | inactive |  |
| Cc1cccc(Nc2ccccc2C(=O)NCc2ccco2)c1C | active: 12.6 µM |  |
| COc1ccc(C2c3c(n(C)c4ccccc34)C(=O)N2CC(=O)Nc2ccccc2F)cc1 (configuration not stated) | inconclusive [inhibitor, single point] |  |
| Cc1ccc(NC(=O)CCOc2ccccc2C)cc1C | inconclusive [inhibitor, single point] |  |
| CCCn1nc2cc(C(=O)NCc3ccc(OC(F)(F)F)cc3)ccc2c1OCC | inconclusive [inhibitor, single point] |  |
| COc1ccc2c(c1)sc1ncc(C(=O)NCc3cccc(Cl)c3)c(=O)n12 | inactive |  |
| c1ccc(COc2ccc(OCCn3cncn3)cc2)cc1 | inconclusive [inhibitor, partial curve, poor fit] |  |
| COc1ccc(-n2c3c(cc(-c4nc(-c5ccc(Cl)cc5)cs4)c2=O)C(=O)CC(C)(C)C3)cc1 | inactive |  |
| O=C(CN1C(=O)/C(=C\c2cccc(Br)c2)Oc2ccccc21)NCCCN1CCOCC1 | inconclusive [inhibitor, partial curve, poor fit] |  |
| CCOc1ccccc1NC(=S)C(=C([O-])c1ccc2c(c1)OCCO2)[n+]1ccc(CC)cc1 | inconclusive [inhibitor, single point] |  |
| O=C1c2[nH]nc(-c3ccc(Br)cc3)c2C(c2cccc(O)c2)N1c1ccc(Cl)cc1 (configuration not stated) | inconclusive [inhibitor, partial curve, poor fit] |  |
| O=C(CCCOc1ccc(Cl)cc1Cl)N1CCCc2ccccc21 | inconclusive [inhibitor, single point] |  |
